The campaign covered roughly 310,000 compounds. About 2,200 (0.71%) showed an effect of 50% or more. The effect is printed as a negative number. The list shows a part of the results.
target: human ether-à-go-go-related gene (hERG) potassium channel (human, UniProt Q12809); experiment: primary screen, population patch clamp on CHO cells stably expressing hERG
Sequence (Q12809 whole entry, looked up): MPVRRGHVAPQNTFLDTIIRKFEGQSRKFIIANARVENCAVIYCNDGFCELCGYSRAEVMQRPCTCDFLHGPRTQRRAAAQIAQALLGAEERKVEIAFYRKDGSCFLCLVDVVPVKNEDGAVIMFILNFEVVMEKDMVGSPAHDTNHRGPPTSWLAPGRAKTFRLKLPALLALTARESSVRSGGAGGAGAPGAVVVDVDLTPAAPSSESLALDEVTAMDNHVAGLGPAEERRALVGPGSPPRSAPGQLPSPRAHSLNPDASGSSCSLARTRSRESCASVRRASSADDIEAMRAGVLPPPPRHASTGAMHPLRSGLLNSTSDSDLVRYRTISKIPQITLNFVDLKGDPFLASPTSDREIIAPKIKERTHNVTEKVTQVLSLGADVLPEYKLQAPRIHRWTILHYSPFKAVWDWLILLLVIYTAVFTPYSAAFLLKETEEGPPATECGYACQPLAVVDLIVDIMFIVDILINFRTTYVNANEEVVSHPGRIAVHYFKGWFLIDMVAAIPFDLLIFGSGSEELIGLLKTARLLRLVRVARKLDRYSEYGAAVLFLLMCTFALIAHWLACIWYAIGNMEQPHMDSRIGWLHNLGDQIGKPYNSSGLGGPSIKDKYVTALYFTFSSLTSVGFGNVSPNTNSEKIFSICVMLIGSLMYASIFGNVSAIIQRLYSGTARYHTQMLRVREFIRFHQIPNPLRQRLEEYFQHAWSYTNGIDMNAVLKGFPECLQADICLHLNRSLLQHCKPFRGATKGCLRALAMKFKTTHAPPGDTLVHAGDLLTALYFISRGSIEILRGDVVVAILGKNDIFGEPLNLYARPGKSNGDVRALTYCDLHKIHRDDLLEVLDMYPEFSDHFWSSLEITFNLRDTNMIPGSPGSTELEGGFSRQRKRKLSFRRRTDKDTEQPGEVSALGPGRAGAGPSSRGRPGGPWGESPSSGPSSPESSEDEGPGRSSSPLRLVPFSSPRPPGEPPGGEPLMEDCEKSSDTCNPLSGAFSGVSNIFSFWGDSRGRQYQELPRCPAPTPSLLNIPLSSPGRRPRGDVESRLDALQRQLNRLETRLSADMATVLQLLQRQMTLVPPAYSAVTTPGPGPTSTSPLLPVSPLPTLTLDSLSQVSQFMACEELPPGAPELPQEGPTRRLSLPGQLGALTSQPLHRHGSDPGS

Going from CC(C)(C)c1ccc(OCCC(=O)Nc2cccc(S(=O)(=O)N3CCOCC3)c2)cc1 to Cc1cc(S(=O)(=O)Nc2ccc(C(=O)NCC(C)(C)N3CCOCC3)cc2)ccc1F, the “hERG current change (%, negative = inhibition) at 1uM” value falls from 5.64% to 1.64%.

Going from COc1ccc(OCC(O)CNC(=O)/C=C/c2cccc([N+](=O)[O-])c2)cc1 (stereo not shown) to N#Cc1ccc(OCC(O)CS(=O)(=O)c2ccccc2)cc1 (stereo not shown), the “hERG current change (%, negative = inhibition) at 1uM” value falls from 14.8% to -0.905%.

Going from C=CCSc1nc(C)cc(C(=O)OCC)c1C#N to C=CCn1c(SCC(=O)NCCO)nc2sc(C)c(C)c2c1=O, the “hERG current change (%, negative = inhibition) at 1uM” value rises from 3.77% to 17.5%.

Compared with Cc1cccc(N(CC(=O)NC2CCCC2)C(=O)c2nsc(Cl)c2Cl)c1C, O=C(CN1C(=O)c2cccnc2Oc2ccc(Cl)cc21)NC1CCCCCC1 is lower in “hERG current change (%, negative = inhibition) at 1uM” value: 17.4% for the first, 11% for the second.

First: COc1ccc(C2(C)NC(=O)N(CC(=O)c3ccc4c(c3)OCO4)C2=O)cc1 (stereo not shown)
Second: Cc1cccc(NC(=O)CN2C(=O)COc3ccc(Cl)cc32)c1C
The “hERG current change (%, negative = inhibition) at 1uM” value of the first is lower: 10.2% for the first, 10.5% for the second.

First: O=C(NC1CC1)c1cc2c(s1)CS(=O)(=O)C2
Second: O=C(NC1CCCCC1)c1ccc(-c2ccc(Cl)cc2)o1
The “hERG current change (%, negative = inhibition) at 1uM” value of the first is lower: 13.8% for the first, 18.1% for the second.

First: COc1ccc2nc(NC(=O)c3ccccc3C(=O)O)sc2c1
Second: COc1ccc(OC)c(NC(=O)c2nc(-c3ccccc3)oc2C)c1
The “hERG current change (%, negative = inhibition) at 1uM” value of the first is higher: 15.2% for the first, 13.1% for the second.

Compared with Cc1cc(C(=O)OCC(=O)Nc2c(F)cccc2F)c(C)n1-c1ccccc1, COC(=O)C1=C(C)N(Cc2ccccc2)C(=O)N[C@H]1c1cccc(F)c1 is lower in “hERG current change (%, negative = inhibition) at 1uM” value: 13.7% for the first, 10.8% for the second.

Going from CC(=O)C1=C(c2ccccc2)NC(=O)NC1c1ccc(O)c(Cl)c1 (stereo not shown) to CCOC(=O)C1=C(CN2CCc3ccccc32)NC(=O)NC1c1ccc(Cl)cc1 (stereo not shown), the “hERG current change (%, negative = inhibition) at 1uM” value falls from 12.9% to -2.45%.

First: C1COCCO1.Nc1c(C(=O)O)sc2nc(-c3ccccc3)cc(-c3ccccc3)c12
Second: O=C(Nc1cccc(-c2nnc(-c3ccccc3)o2)c1)c1ccco1
The “hERG current change (%, negative = inhibition) at 1uM” value of the first is lower: 5.14% for the first, 6.9% for the second.

Compared with CCN(C(=O)c1cccc(S(=O)(=O)N(C)C)c1)C12CC3CC(CC(C3)C1)C2, O=C(Nc1ccc(S(=O)(=O)Nc2ncccn2)cc1)C12CC3CC(CC(C3)C1)C2 is lower in “hERG current change (%, negative = inhibition) at 1uM” value: 14.6% for the first, 14.5% for the second.

Compared with NC(=O)COC(=O)CCSc1ccc(Cl)cc1, Cc1ccc(C(=O)CCC(=O)OCC(=O)Nc2ccccc2SCC#N)cc1 is lower in “hERG current change (%, negative = inhibition) at 1uM” value: 13.5% for the first, 2.91% for the second.

Compared with COc1ccc(N/C(N)=N/c2nc(CSc3ccc(C)cc3)cc(=O)[nH]2)cc1, COc1ccc(CNC(C)C(=O)Nc2ccc3ccccc3c2)cc1OC (stereo not shown) is higher in “hERG current change (%, negative = inhibition) at 1uM” value: -10.7% for the first, 6.19% for the second.

First: COc1ccc(OC)c([C@@H](O)[C@H](C)NC(C)(C)C)c1.Cl
Second: COc1ccccc1/C=C/C(=O)NCC(=O)n1nc(C)cc1C
The “hERG current change (%, negative = inhibition) at 1uM” value of the first is lower: 12.5% for the first, 14.5% for the second.

First: CCN(CC)c1ccc(/C=N/NC(=O)CNC(=O)c2cccnc2)cc1
Second: Cc1ccc(C(=O)NCC(=O)OCN2C(=O)c3ccccc3C2=O)cc1C
The “hERG current change (%, negative = inhibition) at 1uM” value of the first is higher: 12% for the first, 10.3% for the second.

First: CCC(=O)N1CCN(c2ccc(Cl)cc2NC(=O)c2cccc([N+](=O)[O-])c2)CC1
Second: CN1CCN(c2ccc(Cl)cc2NC(=O)c2ccc(=O)n(C)n2)CC1
The “hERG current change (%, negative = inhibition) at 1uM” value of the first is lower: -32% for the first, -6.56% for the second.

Going from O=C(CN1CCOCC1)NCCNC(=O)CN1CCOCC1 to CCOC(=O)/C=C1\SCC(=O)N1CC(=O)NCCOC, the “hERG current change (%, negative = inhibition) at 1uM” value falls from 7.31% to 5.7%.

First: CS(=O)(=O)N1c2ccccc2[C@]2(Br)C[C@H]3C(=O)N[C@@H](Cc4ccccc4)C(=O)N3[C@H]12
Second: CN1C(=O)c2ccccc2C(C(=O)NCCCN2CCCC2)C1c1c[nH]c2ccccc12 (stereo not shown)
The “hERG current change (%, negative = inhibition) at 1uM” value of the first is higher: 6.11% for the first, 4.8% for the second.

Compared with Cc1oc(-c2ccccc2Cl)nc1CN1CCCN(C(=O)c2ccco2)CC1, Cc1ccccc1NC(=O)C1(C)Cc2ccccc2C(=O)O1 (stereo not shown) is higher in “hERG current change (%, negative = inhibition) at 1uM” value: -21.4% for the first, 3.46% for the second.

Going from CCCCN1CC(COc2ccccc2)OC1=O (stereo not shown) to CCCCn1c(N)c(N(CC)C(=O)c2cccc(OCc3ccccc3)c2)c(=O)[nH]c1=O, the “hERG current change (%, negative = inhibition) at 1uM” value rises from -6.39% to -0.527%.

Compared with Cc1cccc(C)c1NC(=O)C1(N(Cc2ccco2)C(=O)CC2NC(=O)NC2=O)CCCCC1 (stereo not shown), Cc1ccc2[nH]c(=O)c(CN(CC3COCCO3)C(=O)Nc3ccccc3C)cc2c1 (stereo not shown) is higher in “hERG current change (%, negative = inhibition) at 1uM” value: 6.02% for the first, 11.7% for the second.

Going from Nc1cc2nsnc2cc1Br to O=C(O)c1csc(-c2cccs2)n1, the “hERG current change (%, negative = inhibition) at 1uM” value rises from 11% to 16.8%.

Compared with CC(C)NC(=O)CC1C(=O)NCCN1CC(c1ccccc1)c1ccccc1 (stereo not shown), O=C(CNC(=O)c1ccccc1)OC(C(=O)c1ccccc1)c1ccccc1 (stereo not shown) is higher in “hERG current change (%, negative = inhibition) at 1uM” value: 2.97% for the first, 6.32% for the second.

Compared with O=C(NC1(C(=O)NC2CCCC2)CCCCC1)c1ccc2c(c1)OCO2, O=C(CCC(=O)OCC(=O)c1cccc([N+](=O)[O-])c1)NC1CCCCC1 is lower in “hERG current change (%, negative = inhibition) at 1uM” value: 4.98% for the first, 0.754% for the second.

Compared with Cc1ccc(N2CCCn3c2cc(C)c(C#N)c3=O)cc1Cl, Cc1cc(C(=O)N/N=C/c2c(C)n(C)c3ccccc23)n[nH]1 is lower in “hERG current change (%, negative = inhibition) at 1uM” value: -1.52% for the first, -2.89% for the second.

First: CC(C)(/C=N/O)N(O)C=C1C=CC(=O)C=C1
Second: CCOC(=O)CNC(=O)CSc1nc(-c2ccccc2)ns1
The “hERG current change (%, negative = inhibition) at 1uM” value of the first is lower: 11.7% for the first, 13.6% for the second.

Compared with CCOc1cc(CNCCO)c(Cl)cc1OCC(=O)NCCc1ccccc1, Cc1cc(C)c(NC(=O)CNC(=O)COC(=O)Cc2ccccc2C)c(C)c1 is lower in “hERG current change (%, negative = inhibition) at 1uM” value: 9.54% for the first, 4.73% for the second.

First: CC(=O)Nc1ccc(NS(=O)(=O)c2ccc3[nH]c(=O)[nH]c3c2)cc1
Second: CSc1cccc(NC(=O)C(C)NS(=O)(=O)c2ccc(F)cc2)c1 (stereo not shown)
The “hERG current change (%, negative = inhibition) at 1uM” value of the first is higher: 1.67% for the first, -11.9% for the second.

Going from O=c1ccccn1CCOc1ccc(Cl)cc1 to COC(=O)c1ccc(COc2ccc(Cl)cc2)o1, the “hERG current change (%, negative = inhibition) at 1uM” value falls from 9.72% to 4.33%.

First: COc1ccc(C)cc1NC(=O)CCNS(=O)(=O)c1ccc2c(c1)CC(C)N2C(C)=O (stereo not shown)
Second: CCN(CC)S(=O)(=O)c1ccc(N2CCOCC2)c(NC(=O)c2ccc(OC)c([N+](=O)[O-])c2)c1
The “hERG current change (%, negative = inhibition) at 1uM” value of the first is higher: 5.43% for the first, 1.2% for the second.

Going from CC(=O)C1=C(O)C(=O)N(CCCn2ccnc2)C1c1ccc(Br)cc1 (stereo not shown) to CCCc1ccc2oc(C(=O)N(C)CCn3ccnc3C)c(C)c2c1, the “hERG current change (%, negative = inhibition) at 1uM” value falls from 5.3% to -28.8%.

Going from CN(C(=O)CSc1nnc2ccccn12)c1c(N)n(Cc2ccccc2)c(=O)[nH]c1=O to CN1C(=O)C(=Cc2ccc(OCC(=O)Nc3ccccc3)cc2)C(=O)N(C)C1=O, the “hERG current change (%, negative = inhibition) at 1uM” value rises from 9.44% to 15.8%.

Going from NS(=O)(=O)c1ccc(CCNC(=O)C2CCN(S(=O)(=O)c3c(Cl)cccc3Cl)CC2)cc1 to Cc1cccc(NC(=S)NCCc2ccc(S(N)(=O)=O)cc2)c1C, the “hERG current change (%, negative = inhibition) at 1uM” value rises from 5.85% to 8.95%.

Going from COc1cc(/C=C2\SC(=O)N(CC(=O)Nc3ccc(C)cc3)C2=O)cc(Cl)c1OCC(=O)O to N=C1SC(CC(=O)Nc2ccc([N+](=O)[O-])cc2)C(=O)N1c1ccccc1 (stereo not shown), the “hERG current change (%, negative = inhibition) at 1uM” value falls from 12.5% to 12.1%.

First: S=C(NCC1CCCO1)Nc1ccc(Nc2ccccc2)cc1 (stereo not shown)
Second: O=C(NCC1CCCO1)C1CCC(CNS(=O)(=O)c2ccccc2)CC1 (stereo not shown)
The “hERG current change (%, negative = inhibition) at 1uM” value of the first is lower: 3.43% for the first, 12.6% for the second.

CCOC(=O)CCNC(C)C1COc2ccccc2O1.O=C(O)C(=O)O (stereo not shown) and CC(O)[C@@H](NC(=O)C1CCC(CNC(=O)[C@H](Cc2ccccc2)NC(=O)OC(C)(C)C)CC1)C(=O)O (stereo partly shown) are the same in “hERG current change (%, negative = inhibition) at 1uM” value: 10.3% for the first, 10.3% for the second.

Compared with Cc1nn(-c2ccccc2)c(C)c1/C=N/NC(=O)c1ccccc1NS(=O)(=O)c1cccs1, O=C(Nc1nc2ccccc2s1)c1cccc(S(=O)(=O)N2CCc3ccccc32)c1 is lower in “hERG current change (%, negative = inhibition) at 1uM” value: 16.4% for the first, -2.8% for the second.

Compared with COc1ccc(-c2oc3ccccc3c2C#Cc2cncn2C)cc1, S=c1[nH]nc(-c2ccccc2)n1/N=C/c1ccc(Cl)cc1 is lower in “hERG current change (%, negative = inhibition) at 1uM” value: 20.5% for the first, 9.86% for the second.

Compared with CC1=C(C(=O)OC(C)C)C(c2cccs2)n2ncnc2N1 (stereo not shown), Cc1nn(C)cc1CNC(=O)c1ccc(F)cc1 is higher in “hERG current change (%, negative = inhibition) at 1uM” value: 7.58% for the first, 10.4% for the second.

First: CC1CCC(NCC(O)c2ccccc2)CC1 (stereo not shown)
Second: C/C=C1\COC(C(=O)NCc2cccc(OC)c2OC)(C(F)(F)F)C=C1C=C1CCCCC1 (stereo not shown)
The “hERG current change (%, negative = inhibition) at 1uM” value of the first is higher: 10.4% for the first, 9.99% for the second.

Going from Br.CCCC1CC(CSC(=N)N)OC1=O (stereo not shown) to CCCOc1cc(C)c(S(=O)(=O)NCCOC)cc1C, the “hERG current change (%, negative = inhibition) at 1uM” value falls from 13.4% to -3.16%.

Compared with CN(C)S(=O)(=O)c1cccc(NC(=S)Nc2cc(Cl)cc(Cl)c2)c1, Cc1cccc(Cc2cnc(NC(=O)c3ccc(C)o3)s2)c1 is higher in “hERG current change (%, negative = inhibition) at 1uM” value: -6.07% for the first, -1.73% for the second.

First: O=c1c2cc3c(=O)n(CC4CCCO4)c(=O)c3cc2c(=O)n1CC1CCCO1 (stereo not shown)
Second: O=[N+]([O-])c1cc2c(cc1CN1CCN(CCOCCO)CC1)OCO2
The “hERG current change (%, negative = inhibition) at 1uM” value of the first is lower: 3.92% for the first, 13.4% for the second.

First: CCOc1cccc(=O)c2c(C)oc(C)c12
Second: Cc1csc(C(=O)O)c1-c1c(C)csc1C(=O)O
The “hERG current change (%, negative = inhibition) at 1uM” value of the first is higher: 7.81% for the first, 3.62% for the second.

— publication PMC4336329 (PLoS ONE, 2015)
